B1: LINE1-full (parent)
chain: UACGUAGGUGGUUUUCCCCUGAUAGUGCUAAGGGGGCCUGGAAGUUUGGACUGGGCAGAGCUCAACACAGCGUGGCAAAGUGGCUGUGGCUAGACUGCCUCUCUGGAUUCCUCGUCACUCAGCAGGGCAUCUCUGAGAGAAAUGCC

Read counts are not given, so values of variants with three or more changes are uncertain.

The series covers variants of B1. The experiment in a line: self-cleavage, relative activity (ratio to wild type); higher = more cleavage; in vitro, sequencing; the parent is a self-cleaving ribozyme.
Regarding UACGUAGGUGGUUUACCCCCGAUAGUGCUAAGGGGGCCGGGAAGUUUGGACUGGGCAGAGCUCAACACAGCGUGGCUAAGUGGCUGUGGCUAGACUGCCUCUCUGGAUUCCUCGUCACUCAGCAGGGCAUCUCUGAGAGAAAUGCC [U15A U20C U39G A77U], the self-cleavage is 1.47.
On to UGCGUAGGUGGUUUUCCCCUGAUAGUGCUAAGGUGGCCUGGAAGCUUGGACUGGGCAGAGCACAACACAGCGUGGUAAAGUGGCUGUGGCUAGACUGCCUCUCUGGAUCCCUCGUCACUCAGCUGGGCAUCUCAGAGAGACAUGCC [A2G G34U U45C U62A C76U U109C A124U U134A A141C], for which the self-cleavage came to 0.1.
Consider CACGUAGGUGGGUUUCCCCUGAUAGUGCUAAGGGGGCCUGGAAGUUUGGACUGGGCAGAGCUCAUCACAGCGUGGCAAAGUGGCUGUGGCUAGACUGCCUCUCUGGAUUCCUCGUCACUCAGCAGGGCACCUCUGAGAGAAACGCC [U1C U12G A65U U130C U143C], for which the self-cleavage stood at 0.21.
Under UACGUAGGCGGUUUUCCCCUGAUAGUGCUAAGGGGGCCUGGAUGAUUGGACUGGGCAGAGCUCAACACAGCGUGGCAAAGUGGCUGUGGCUAGACUGCCUCUCUGGAUUCCUCGUCACUCAGCAGGGCAUCUCUGAGAGAAAUGCC [U9C A43U U45A] stands 1.22; under UACGUAGGUGGUUUUCCCCUGAUAGUGCUAAGGGGGCCUGGAAGAUUGGACUGGGCAGAGCUCAUCACAGCGCGGCAGAGUGGCUGUGGCUAGACUGCCUCUCUGGAUUCCUCGUCACUCAGCAGGGCAUCUCUGAGAGAAAUGCC [U45A A65U U73C A78G], 0.33.
On to UUCGUAGGUGGUUUUCCCCUGAUAGUGCUAAGGGGGCCUGGAAGUUUGGACUGGGCAGAGCUCAACACAGCGUGGCAAAGUGGCUGAGGCUAGACUGCCUCUCUGGAUUCCUCGUCACUCAGCUGGGCAUCUCUGAGAGAAAUGCC [A2U U87A A124U], for which the self-cleavage amounted to 0.09.
As to UACGUAGGUGGUUUUCCCCUGAUAGUGCUAAGUGGGCCUGGAAGUUUGGACUGGGCAGAGCUCAACACAGCGUGGCGAAGUGGCUGUGGCUAGACUGCCUCACUGGAUUCCUCGUCACUCAGCAGGGCAUCUCUGAGAGAAAUGCC [G33U A77G U102A], the self-cleavage stood at 2.15.
For UACGUAGGUGGUUUUCCCCUGAUAGUGCUAAGGGGGCCCGGAAGUUAGGACUGCGCAGAGCUCAACACAGCGUGGCUAAGUGGCUGUGGCUAGACUGCCUCUCUGGAUUCCUCGCCACUCAGCAGGGCAUCUCUGAGAGAAAUGCC [U39C U47A G54C A77U U115C], the self-cleavage was found to be 0.69.
Consider UACGUAGGUGGUUUUCCCCUGAUAGUGCUAAGGGGGCCUGGAAGUUUGGACUGGGCAGAGCUCAAAACAGCGUGGCAAGGUGGCUGUGGCUAGACUGCCUCCCCGGAUUCCUCGUCACUCAGCAGGGCACCUCUGAGAGGAAUGCC [C66A A79G U102C U104C U130C A140G], for which the self-cleavage amounted to 0.37.
For the variant UACGUAGGUGGUUUUCCCCUGAUAGUGCUAAGGGGGCCUGGAAGUUUGGACUGGGCAGAGCUCAACACAGCGUGGCAAAGUGGCUGUGGCCAGACUGCCUCUCUGUAUUCCUCGUCACUCAGCAGGGCAUCUCUGAAAGAAAUGCC [U91C G106U G137A], the self-cleavage stood at 0.37.
For the variant UACGUAGGUGGUUUUCCCCUGAUAGUGCUAUGGGGGCCUGGAAGUUUUGACUGGGCAGAGCUCAACACAGCGUGGCAAGGUGGCUGUGGCUAGACUGCCUCUCUGGAUUCCUCGUCACUCAGCAGGGCAUCUCUGAGAGAAAUGCC [A31U G48U A79G], the self-cleavage is 0.48.
Regarding UACGUAGGUGGUUUUCCCCUGAUAGAGCUAGGGGGGCCUGGAAGUUUGGACUGGGCAGAGCUCAACGCAGCGUGGCAAAGUGGCUGUGGCUAGACUGCCUCUCUGGAUUCCUCGUCACUCAGCAGGGCAUCUCUGAGAGAAAUGCC [U26A A31G A67G], the self-cleavage was 0.
On to UACGUAGGUGGUUUCCCCCUGAUAGUGCUAAGGGGGCCUGGAAGUUUGGACUGGGCAGAGCUCAACACAGCGUGGCAAAGUGGCUGUGGCUGGACUGCCUCUCUGGAUUCCUCGUCACUCAGCAGGGCAUCUCCGAGAGAAAUGCC [U15C A92G U134C], for which the self-cleavage turned out to be 0.08.
Under UACGCGGGUGGUUUUCCCCUGAUAGUGCUAAGGGGGCCUGGAAGUUUGGACUGGGCAGAGCUCAACACGGCGUGGCAAAGUGGCUGUGGCUAGACCGCCUCUCUGGAUUCCUCGUCACUCAGCAGGGUAUCUCUGAGAGAAAUGCC [U5C A6G A69G U96C C128U] stands 0; under UACGUGGGUGGUUUUCCCUUGAUAGUGCUAAGGGGGCCUGGAAGUUUGGACUGGGCAGAGCUCAACACAGCGUGGCAAAGUGGCUGUGGCUAGACUGCCUCUCUGGAUUCCUCGUCGCUCAGCAGGGCAUCUCUGAGAGAAAUGCC [A6G C19U A117G], 1.06.
As for UACGUAGGUGGUUUUCCCCCGAUAGUGCUAAGGGGGCCUGGAAGUUUGGACUGGGCAGAGCUCAACACAGCGUGGCAAAGUGGCUGUGGCUAGACUGCCUCUAUGGAUUCCCCGUCACUCAGCAGGGCAUCUCUGAGAGAAAUGCC [U20C C103A U112C], the self-cleavage is 1.3.
Regarding UACGUAGGUGGUUUUCCCCUGAUAGUGCUAAGGGGGCCUGGAAGUUUGGACUGGGCAGAGCUCAACACAGCGUGGCAAAGUGGCUGUGGCUAGGCUGCCUCUCUGGAUUCCUCGUCACACAGCAGGGCAUCUCUGAGGGAAAUGCC [A94G U119A A138G], the self-cleavage came out at 0.43.
With UACGUAGGUGGUUCUCCCCUGAUAGUGCUAAGGGGGCCUGGAAGUUUGGACUGGGCAGAGCUCAACACAGCGUGGCAAGGUGGCUGUGGCUUGACUGCCUCUCUGGAUUCCUCGUCACUCAGCAGGGCAUCUCUGAGAGAAAUGCC [U14C A79G A92U], the self-cleavage was 0.56.
Under UACGUAGGUGGUUUUCCCCUGAUUGUGCUAAGGGGGCCUGGAAGUUUGGGCUGGGCAGGGCUCAUCACAGCGUGGCAAAGUGGCUGUGGCUAGACUGCCUCUCCGGAUUCCUCGUCACUCAGCAGGGCAUCUCUGAGAGAAGUGCC [A24U A50G A59G A65U U104C A142G] stands 0; under UAUGUAGGUGGUUUUCCCCUGAUAGUGCUAAGGGGGCCUGGAAGUUUGGACUGGGCUGGGCUCAACACAGCGUGGCAAAGUGGCUGUGGCUAGACUGCCCCUCUGGAUUCCUCGUCACUCAGCGGGGCAUCUCUGAGAGAAAUGCC [C3U A57U A59G U100C A124G], 0.84.
